Measured values from the supplement of paper PMC11417369.
Some of the results follow.

Tested on: PfHDP1 homeodomain (GST-tagged)
Experiment: gcPBM binding intensity (ln(normalized median fluorescence intensity)); higher = stronger DNA binding
Outline: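 For binding intensity, the highest Masliner-normalised natural-log median intensity across replicate spots of either probe orientation was taken. Protein bound to the array was stained with Alexa488 anti-GST antibody and scanned at 488 nm. The protein, GST-tagged P. falciparum DNA-binding domains from E. coli at about 25 μg on average, had been applied for 1 h to an Agilent 4 × 180k array of primer-extended double-stranded 36-bp intergenic genomic probes and negative controls.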

Sequence | gcPBM binding intensity (ln)
ATATATATATATATATGTACACATATATGTGTTTGT [XGTACX_site62] | 9.43
TGAACTCACGAGCACACACACACATATATATATATA [CACACA_site8248] | 9.16
TTTTGATTGTTATTCGTATATTATTTTATGATTATA [CACACA_negctrl_site1593] | 6.38
CAAAATATTTTTATAACACACATATTTATAACGTGC [CACACA_site6659] | 6.43
AATAATCATTTTCATAGTACGTATGATTAGAAAAAA [XGTACX_site2589] | 6.58
TTATACATTTGTAAATAAATAGAACTGTATTTTTTT [TGCATGCA_negctrl_site397] | 5.9
TATATACCGATATATACACACAAATACATAAGCTTC [CACACA_site6760] | 6.67
TGCCAATTTTTAAAAACATGCATTATATAGAATAAA [TGCATGCA_site872] | 6.39
AATGGAAAATTATTAACACACACATATAAATATATA [CACACA_site7899] | 6.61
TTTTCAATATATAGAGCATGCGCATCCACAAATATG [TGCATGCA_site380] | 7.14
TACAACAATTTTTGCACACACCAAAACATAAAATAA [CACACA_site4964] | 10.3
ATTAAAAGGGGGTTTACATGTGTGTGTGTAATATGG [TGCATGCA_negctrl_site293] | 7.55
ATATTTCATCTAGCTACACACATATAATAAATTATT [CACACA_site4094] | 7.09
AAATGAATTATATAATATATATAAATAAATAAATAA [CACACA_negctrl_site359] | 6.57
TATTATATAACAAAAAGTACTTATAAGAAATATATA [XGTACX_site5467] | 6.85
TAATAAGTACCTTTTGCATGTGGCACGCTTTTTTTT [TGCATGCA_site573] | 6.21
AATATAAACAGACACACACACATATAGATTTATATT [CACACA_site7382] | 6.8
GAAAATAGAAAAAGCACACATATATTTTGGAATGTA [CACACA_site551] | 6.5
TTTTAATGAAAACACACACACACATATATATATATA [CACACA_site5295] | 9.23
GGATAGATAATAGGGGGTACAAATATACATACATAT [XGTACX_site5089] | 7.73
CTAAATATATAAAAAAGTACAAAATAAATAATAATT [XGTACX_site2442] | 6.77
TATTTCTGATTATTTTGTACACATTATATATAATGC [XGTACX_site6990] | 6.78

Sequence | gcPBM binding intensity (ln)
TATATATTATGACCACCACACACCTATACACATAAC [CACACA_site8773] | 7.08
ACATATAATAAAAAATGTACACACATAAGAAAATTT [XGTACX_site6153] | 6.57
AAAAAAAATATATAAACACACATATTTATATACTCA [CACACA_site4984] | 6.27
ACTATAAATATATAAATATATATATATATATATATA [GTGCAC_negctrl_site65] | 9.29
TTGTGTGTATGTATACATATATATATTGAGACGAAT [TGCATGCA_negctrl_site382] | 7.29
TTTCCATTATGATATAGTACATAAATATATGTAATA [XGTACX_site6992] | 6.2
GGAGAATAGTGGAAAACACACACGTTTGAGATATGG [CACACA_site1168] | 6.53
CAAAAACGGAAGTGGTGTACCGATATTATATAAACA [XGTACX_site4962] | 6.61
TTTTTTTTTTTTACCTGTACATGTCAGCAAACTTTT [XGTACX_site1171] | 6.55
AACATTATAAGACACACACACACATATATATATATA [CACACA_site8259] | 9.19
ACTCTTAAAATGTATTGTACATAATTTTTACAAGGG [XGTACX_site6611] | 6.82
AGGTAGTTCTGTATCACACACATATATATATATATA [CACACA_site2214] | 9.41
AATTGTAAATTGGGCACTTATAAAAATGAACAAATA [CACACA_negctrl_site1583] | 6.79
TCATAAAGAACAAAGTGTACCTATATATTACATACA [XGTACX_site7595] | 6.29
TATAAAACCCTACTGTTTCTTCTTTATTGATATATT [TGCATGCA_negctrl_site285] | 6.28
GAAAGAATAAAATAAACATGCAAATAAAACATAAAA [TGCATGCA_site471] | 7
AAAGTTTTTATACATACACACCTATAAATTAAGTGC [CACACA_site7198] | 6.37
TATGTCAATTTTCATACATGCGCATAATCTTTATTT [TGCATGCA_site807] | 7.53
ATAAATAAGATACGTACACACATATACAAAATATAC [CACACA_site3661] | 6.76
TACTATCTATACAATACACACAAAAAAAAAAAAATA [CACACA_site3981] | 6.43
TTATTATCCTATATTTCTTTTCCTTCTTCAAAATTA [CACACA_negctrl_site1314] | 6.19
TAAATACACTGTAGCGCACACGGCCAAAAAAAAAAA [CACACA_site1818] | 6.72

Sequence | gcPBM binding intensity (ln)
TAATATCATTTATATTGTACTATAACAAAATCTATA [XGTACX_site7700] | 6.02
ATATAAAATAATAAGGGTACAGGTCTCTGCGATGTT [XGTACX_site786] | 6.14
TAAAATATTGTTATTACATGCAACCTTATGAAAAAT [TGCATGCA_site706] | 6.7
ACTCGCATATTTAAATGTACTTAATTAGAAGAAAAA [XGTACX_site3304] | 6.98
AGAATTTTAGATTTAGCACACATTTTTTTTTTTTTT [CACACA_site4081] | 7.01
AAAAAAAAAAAAAAAAAAAAAAAAAAAAGTTAAAAA [TGCATGCA_negctrl_site74] | 7.29
AAAAAAAAAGATCACACACACATAAATATAAACAAA [CACACA_site5285] | 7.03
TGATATTATTATAAGGTGCTTAAAAATAAAGATAAT [GTGCAC_site9539] | 6.49
AACAAGAAATAATCACGTACACATTATAATAACTAA [XGTACX_site8184] | 6.6
CTTTAATATTTTATTTCACACACATAAATGCCCCAA [CACACA_site8569] | 7.06
AAAATTAAAATAGTAATACACACTTCATAGGAAATG [CACACA_site1762] | 6.02
ATAATATAAACATACACACACACATATATATATATA [CACACA_site5591] | 9.26
ATAAATTGTAAAATGTGTACGCAGATATTGCGTATT [XGTACX_site332] | 6.66
TCTATATAATACCAATGTACATAGTTTTAAGCATAA [XGTACX_site1889] | 6.7
AGGATATGCAGACACACACACATATAGATTTATATA [CACACA_site7100] | 6.6
AAAACAAAAATATAAACACACATACATTGGTTTTCT [CACACA_site5405] | 6.17
TTTTGTCTTCAAATCAAATGTATATAAAAAAAATAC [CACACA_negctrl_site1717] | 6.33
TTTAAAAATTTGATCAAACACACGTTGCATAAATTA [CACACA_site3945] | 8.11
TTTTTAACTAACATATCAATTCCATACGTCGTCAAA [CACACA_negctrl_site560] | 6.16
ACTTTAATAATTCACTTATTTTCTTATTATATTATT [CACACA_negctrl_site556] | 6.78
GGATTTATTTTATATACACACATACCTATATTTATA [CACACA_site7084] | 6.84
AACTTGTGTGGATATTGTACTAACAATATGTATGAT [XGTACX_site6302] | 7.05

Sequence | gcPBM binding intensity (ln)
AATAGTGTATAAATTTGTACATATAATTAAAAGGAA [XGTACX_site1143] | 6.67
ATTCATAAAAAGAGGTGTACATTAATATAATATATA [XGTACX_site8283] | 6.61
TTATTCGAACAAAGGAAAAAATATATTCAAAGGAAA [TGCATGCA_negctrl_site215] | 6.45
AATAACTTTTTGAGATGTACATTTTTAATTCGTAGA [XGTACX_site8455] | 6.17
TATGCTACATTATATGTACACACATATACATATATA [CACACA_site8199] | 6.93
ATTTATACGTAATATGCATAAATATAAATATATATA [XGTACX_negctrl_site133] | 6.68
TTTCTTTCTTTCTTTTTTTAAATATTTTTTAAAAAT [TGCATGCA_negctrl_site206] | 6.41
TTAAAATTTTAAAAATTTTAATTTTACAAAAAAAAT [TGCATGCA_negctrl_site227] | 5.89
ATATAAATAAAAAAAAAAAAAAAAAAAAAAAAAAAA [CACACA_negctrl_site972] | 6.02
TATATATAACATTGTACACACAAAGAAATAATATTA [CACACA_site3035] | 6.58
AAAAGTATATATTCAGTGCATAGTCTTTAAATATAA [GTGCAC_site9522] | 8.54
ATAAGCATCTGGATATGTACTTATTCCTTTAAAGAT [XGTACX_site6225] | 6.24
AACAAGTTGCATGGTGCACACATGTATTTATATCTA [CACACA_site5414] | 10.1
TATTAAAAATATTATGTACACACATTTTAGATATTT [CACACA_site8549] | 6.41
ATAAAAAAGCAACATCATATGTTTTTATAGAGTATT [CACACA_negctrl_site745] | 6.19
AAATTAATGAAATATACACACATATATAAATATATA [CACACA_site4378] | 6.32
AAATTAAAGATAAAAGTGCAAAATTATAAATTTATT | 7.86
TTTCGCTTTATTTATGCATGCAAATAAGTTGATATT [TGCATGCA_site724] | 6.78
ATTTTTGTAAATACATGTACATATATATGCATATCC [XGTACX_site6353] | 7.01
TACATATATACATACACACACATATAACCAATGTAG [CACACA_site2192] | 6.94
AGTAATAGTTTGTGCACACTCAAGTATATCATAGAT [CACACA_site6082] | 11.1
